# In the supplement of paper PMC8728848:
# The list shows a part of the results.
# B1: CC1G-10077 (Coprinopsis cinerea), A8NDT7 (protein)
# chain: MALNEGVYWIRNSRFTNKVLDLDAANVAKGTSILDFNEHGTFNENHNQLWIVERFQSRDTYLIRSVHSNLVLDLSQGLSANGTPILCWTQHGGTNQQWRIEWVKDDNKTPLYRIVSVATGTAISHNEDDSSAYTVAWSVDDGPKQLWSFDPFVTPLLYRLRVKSTSRVLDLAAASADNGTLALAWEQHTAITKRNQLWWLPYRSGAEEYTIQCLETSTVADLSGGNSGNGTPIYGWQSHGGRNQQWKFEPTSDSGDYYHIKNVEGGSVMDAYMNDSQKRVGGWSNNGGDNQKWLLDPLPSPGPGWVLIQNGGTGKFLCSTPSGDIGTADGPETVYDYSVQWRFIQREYTGVYHVVNRATGAYLRQIGTSMPSIGLAEENDDELKDWWMLETYDNSEIGLASIISRWTGNVLDHYGGVSVQALDNNTENSYRSWAIIPARDWLTSFSLVNGQGGLCLAAQYAREETRLSTTANVNDFHAQWVFRKPSGSSGYTIQNKYNNHYVGGTSARWELVVCCNKYFGIRNTSTQKYLAIEDGQVTFQDQDMTDRKQCWELCSGRATDTSGNDYDLIYMDDDLLEVMIPWVGDKQGDLKHYIEKRATKKPPKDKGGWQLPAAGLIKKPKFNDIRQLLQELIEQWEWDVVNEEREQIQTLVSIDEAEARRLLGRRPHPDIVAAYQRSRSSTLFRIDRQGYFNIAGDRYVNIQGQYGDDSYFHIALPVGVRFGREQIRRFLRDSLDRSTSVTITPTTCKPPSGGPDYNRDPDSDGDNSWIKWTIAVVGTSAIKHSEL
# Legend:
# Assay in all cases: glycan array binding signal (z-score within array); higher = stronger binding
# Conditions in all cases: glycan notation: IUPAC condensed, linker removed
# [1] = target: Neu5Ac(a2-3)Gal(b1-3)GlcNAc(b1-6)GalNAc
# How it was run: (§1)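 Glycan array data were curated from 3228 arrays in the Consortium for Functional Glycomics database and kept only where the protein sequence was available. Glycan names were converted to IUPAC-condensed notation, and columns mapping to the same glycan were averaged. The binding signal is a within-array Z-score, averaged across arrays of the same protein sequence at different concentrations or buffers and across linkers. Negative Z-scores can be read as non-binding.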
# [2] = target: Neu5Ac(a2-3)Gal(b1-3)GlcNAc6S
# How it was run: as §1
# [3] = target: Neu5Ac(a2-3)Gal(b1-3)[Fuc(a1-4)]GlcNAc
# How it was run: as §1
# [4] = target: Neu5Ac(a2-3)Gal(b1-3)[Fuc(a1-4)]GlcNAc(b1-3)Gal(b1-3)[Fuc(a1-4)]GlcNAc
# How it was run: as §1
# [5] = target: Neu5Ac(a2-3)Gal(b1-3)[Fuc(a1-4)]GlcNAc(b1-3)Gal(b1-4)[Fuc(a1-3)]GlcNAc
# How it was run: as §1
# [6] = target: Neu5Ac(a2-3)Gal(b1-3)[GlcNAc(b1-6)]GalNAc
# How it was run: as §1
# [7] = target: Neu5Ac(a2-3)Gal(b1-3)[Neu5Ac(a2-6)]GalNAc
# How it was run: as §1
# [8] = target: Neu5Ac(a2-3)Gal(b1-3)[Neu5Ac(a2-6)]GlcNAc(b1-3)[Fuc(a1-3)[Gal(b1-4)]GlcNAc(b1-6)]Gal(b1-4)Glc
# How it was run: as §1
# [9] = target: Neu5Ac(a2-3)Gal(b1-3)]Neu5Ac(a2-3)Gal(b1-4)]GlcNAc
# How it was run: as §1
# Neu5Ac(a2-3)Gal(b1-4)Glc = target: Neu5Ac(a2-3)Gal(b1-4)Glc
# How it was run: as §1
# [10] = target: Neu5Ac(a2-3)Gal(b1-4)GlcNAc
# How it was run: as §1
# [11] = target: Neu5Ac(a2-3)Gal(b1-4)GlcNAc(b1-2)Man
# How it was run: as §1
# [12] = target: Neu5Ac(a2-3)Gal(b1-4)GlcNAc(b1-2)Man(a1-3)[GlcNAc(b1-4)][Neu5Ac(a2-3)Gal(b1-4)GlcNAc(b1-2)Man(a1-6)]Man(b1-4)GlcNAc(b1-4)GlcNAc
# How it was run: as §1
# [13] = target: Neu5Ac(a2-3)Gal(b1-4)GlcNAc(b1-2)Man(a1-3)[Neu5Ac(a2-3)Gal(b1-4)GlcNAc(b1-2)Man(a1-6)]Man(b1-4)GlcNAc(b1-4)GlcNAc
# How it was run: as §1
# [14] = target: Neu5Ac(a2-3)Gal(b1-4)GlcNAc(b1-2)Man(a1-3)[Neu5Ac(a2-3)Gal(b1-4)GlcNAc(b1-2)Man(a1-6)]Man(b1-4)GlcNAc(b1-4)[Fuc(a1-6)]GlcNAc
# How it was run: as §1
# [15] = target: Neu5Ac(a2-3)Gal(b1-4)GlcNAc(b1-2)Man(a1-3)[Neu5Ac(a2-6)Gal(b1-4)GlcNAc(b1-2)Man(a1-6)]Man(b1-4)GlcNAc(b1-4)GlcNAc
# How it was run: as §1
# [16] = target: Neu5Ac(a2-3)Gal(b1-4)GlcNAc(b1-2)[Neu5Ac(a2-3)Gal(b1-4)GlcNAc(b1-4)]Man(a1-3)[GlcNAc(b1-4)][Neu5Ac(a2-3)Gal(b1-4)GlcNAc(b1-2)[Neu5Ac(a2-3)Gal(b1-4)GlcNAc(b1-6)]Man(a1-6)]Man(b1-4)GlcNAc(b1-4)GlcNAc
# How it was run: as §1
# [17] = target: Neu5Ac(a2-3)Gal(b1-4)GlcNAc(b1-2)[Neu5Ac(a2-3)Gal(b1-4)GlcNAc(b1-4)]Man(a1-3)[GlcNAc(b1-4)][Neu5Ac(a2-3)Gal(b1-4)GlcNAc(b1-4)Man(a1-6)]Man(b1-4)GlcNAc(b1-4)GlcNAc
# How it was run: as §1
# [18] = target: Neu5Ac(a2-3)Gal(b1-4)GlcNAc(b1-2)[Neu5Ac(a2-3)Gal(b1-4)GlcNAc(b1-6)]Man(a1-6)[Neu5Ac(a2-3)Gal(b1-4)GlcNAc(b1-2)Man(a1-3)][GlcNAc(b1-4)]Man(b1-4)GlcNAc(b1-4)GlcNAc
# How it was run: as §1
# [19] = target: Neu5Ac(a2-3)Gal(b1-4)GlcNAc(b1-3)Gal
# How it was run: as §1
# [20] = target: Neu5Ac(a2-3)Gal(b1-4)GlcNAc(b1-3)Gal(b1-3)GlcNAc
# How it was run: as §1
# [21] = target: Neu5Ac(a2-3)Gal(b1-4)GlcNAc(b1-3)Gal(b1-4)GlcNAc
# How it was run: as §1
# [22] = target: Neu5Ac(a2-3)Gal(b1-4)GlcNAc(b1-3)Gal(b1-4)GlcNAc(b1-2)Man(a1-3)[Neu5Ac(a2-3)Gal(b1-4)GlcNAc(b1-3)Gal(b1-4)GlcNAc(b1-2)Man(a1-6)]Man(b1-4)GlcNAc(b1-4)GlcNAc
# How it was run: as §1
# [23] = target: Neu5Ac(a2-3)Gal(b1-4)GlcNAc(b1-3)Gal(b1-4)GlcNAc(b1-3)Gal(b1-4)GlcNAc
# How it was run: as §1
# [24] = target: Neu5Ac(a2-3)Gal(b1-4)GlcNAc(b1-3)Gal(b1-4)GlcNAc(b1-3)Gal(b1-4)GlcNAc(b1-2)Man(a1-3)[Neu5Ac(a2-3)Gal(b1-4)GlcNAc(b1-3)Gal(b1-4)GlcNAc(b1-3)Gal(b1-4)GlcNAc(b1-2)Man(a1-6)]GalNAc
# How it was run: as §1
# [25] = target: Neu5Ac(a2-3)Gal(b1-4)GlcNAc(b1-3)Gal(b1-4)GlcNAc(b1-3)GalNAc
# How it was run: as §1
# [26] = target: Neu5Ac(a2-3)Gal(b1-4)GlcNAc(b1-3)Gal(b1-4)GlcNAc(b1-3)[Neu5Ac(a2-3)Gal(b1-4)GlcNAc(b1-3)Gal(b1-4)GlcNAc(b1-6)]GalNAc
# How it was run: as §1
# [27] = target: Neu5Ac(a2-3)Gal(b1-4)GlcNAc(b1-3)Gal(b1-4)GlcNAc(b1-6)[Gal(b1-3)]GalNAc
# How it was run: as §1
# [28] = target: Neu5Ac(a2-3)Gal(b1-4)GlcNAc(b1-3)Gal(b1-4)[Fuc(a1-3)]GlcNAc
# How it was run: as §1
# [29] = target: Neu5Ac(a2-3)Gal(b1-4)GlcNAc(b1-3)GalNAc
# How it was run: as §1
binder,measurement,setting,value
B1,glycan array binding signal (z-score),[1],0.95
same,glycan array binding signal (z-score),[2],-0.458
same,glycan array binding signal (z-score),[3],-0.473
same,glycan array binding signal (z-score),[4],-0.472
same,glycan array binding signal (z-score),[5],-0.475
same,glycan array binding signal (z-score),[6],-2.79
same,glycan array binding signal (z-score),[7],-0.486
same,glycan array binding signal (z-score),[8],-0.444
same,glycan array binding signal (z-score),[9],-0.37
same,glycan array binding signal (z-score),Neu5Ac(a2-3)Gal(b1-4)Glc,-0.638
same,glycan array binding signal (z-score),[10],-0.45
same,glycan array binding signal (z-score),[11],-0.331
same,glycan array binding signal (z-score),[12],-0.383
same,glycan array binding signal (z-score),[13],-0.503
same,glycan array binding signal (z-score),[14],-0.46
same,glycan array binding signal (z-score),[15],-0.436
same,glycan array binding signal (z-score),[16],-0.422
same,glycan array binding signal (z-score),[17],-0.489
same,glycan array binding signal (z-score),[18],-0.496
same,glycan array binding signal (z-score),[19],-0.52
same,glycan array binding signal (z-score),[20],-0.453
same,glycan array binding signal (z-score),[21],-0.43
same,glycan array binding signal (z-score),[22],-2.14
same,glycan array binding signal (z-score),[23],-0.463
same,glycan array binding signal (z-score),[24],-0.417
same,glycan array binding signal (z-score),[25],-0.473
same,glycan array binding signal (z-score),[26],-0.151
same,glycan array binding signal (z-score),[27],-0.408
same,glycan array binding signal (z-score),[28],-0.473
same,glycan array binding signal (z-score),[29],-0.461
